# Test results as given in ChEMBL document CHEMBL5308541, “MAIP: An Open-Source Tool to Enrich High-Throughput Screening Output and Identify Novel, Druglike Molecules with Antimalarial Activity” (ACS Med Chem Lett, 2023).
# The campaign covered roughly 150,000 compounds. About 540 (0.36%) showed an effect of 50% or more. The list shows a part of the results.
# Test system: Plasmodium falciparum
# Assay: Primary screen in NF54 nanoGlo assay, in single point, at 2uM, 72h; a lower Z score goes with more inhibition
# Type: functional, Erythrocyte
# Settings: timepoint 72 hour
SMILES,% Inhibition [%],Z score
c1ccc(-c2ncn(C3CCNCC3)c2-c2ccccc2Cn2cccn2)cc1,3,-0.47
CCOc1ccc(Nc2nc3ccccc3nc2Nc2cc(C)nn2-c2nc3ccccc3n2C)cc1,-6,0.99
O=C(Cc1coc2cc(F)ccc12)N1CCO[C@@]2(CCCOC2)C1,4,-0.65
CN1C(=O)C[C@@H](CNc2ncnc3[nH]ccc23)[C@@H]1c1nccn1C,-3,0.52
CCc1nccn1CCCNc1nccc(N2CC[C@H](O)C2)n1,15,-2.67
CNC(=O)c1ccc(OC)c(-c2cccc(C(=O)N3CCCC[C@@H]3CN)c2)c1,2,-0.28
c1ccc([C@H]2CCCN(CCNCc3cnc(-c4cccs4)nc3)C2)cc1,-5,0.92
COCCN1CCC[C@H](CNc2nc(N)c3cnn(C)c3n2)C1,-4,0.72
CN1CCN(CC2CN(Cc3cccc(N4CCOCC4)c3)CC2CO)CC1 (stereo not drawn),-13,2.85
COc1ccc(-c2ccccc2)cc1N1C(=O)C2CC1CN2c1ccnc(N)n1 (stereo not drawn),-4,0.84
CC1CC1CC(=O)N1CC(O)(C(F)F)C1 (stereo not drawn),-7,1.24
CCN(CC)Cc1cnc2c(C(=O)NC3CC(C)(C)NC(C)(C)C3)cnn2c1,-8,1.41
CN1CCC[C@@H](CNc2nc3ccccc3n2C)[C@@H]1c1cncn1C,5,-0.9
COCCN1CCC[C@H](CNCc2cnn(-c3ccc4ccccc4c3)c2)C1,40,-8.61
COC(=O)CCN(C(=O)CCN1C(=O)C2CCCCC2C1=O)C1CCOCC1 (stereo not drawn),-5,1.06
COc1nc(NCCN2CCC[C@H](C(N)=O)C2)ncc1F,-1,0.28
C[C@H](O)c1ccc(CNc2ncccc2F)cc1,1,-0.21
CC(C)(C)c1nc(C(=O)N2CCn3c(Cl)cnc3C2)cs1,-7,1.29
CN1CCN(Cc2cc(-c3ccc(F)cc3)ccc2OCC(=O)N2CC=C(c3ccccc3)CC2)CC1,-4,0.74
CN(C)C(=O)c1ccc(-c2ccc(-c3ccn[nH]3)cc2)nc1,-8,1.4
Cc1ccc(Nc2ccc(NCCNS(=O)(=O)c3ccccc3F)nn2)nc1,11,-1.96

SMILES,% Inhibition [%],Z score
CC1(C)CCCN(c2ccnc(N[C@H]3CCCOCC3)n2)C1,9,-1.88
O=C(O)c1cc(Nc2cc(-c3ccccc3)ncn2)ccc1O,2,-0.45
N#CCN1CCCC1C1CCCCC1O (stereo not drawn),3,-0.46
Cc1ccc(CN2CCC(N3CCC(Oc4ccc(C(F)(F)F)cn4)CC3)CC2)s1,-2,0.34
O=C(Nc1ccccc1-c1ccccc1)N1CCC(N2CCN(CCO)CC2)CC1,6,-1.1
CCc1nc2ccc(NC(=O)N3CCN(c4cc(C)nc(N)n4)CC3)cc2[nH]1,-6,0.99
Cc1cc2cccc(C(=O)NCC3CCN(c4ncnc5[nH]ccc45)CC3)c2o1,-4,0.79
Cc1cc(Cl)cc2c1N(C(=O)c1cccc3nccn13)CCC2,2,-0.49
CC(C)(CN1CCCCCC1)NC(=O)c1cccc(-c2ccccc2O)c1,1,-0.19
O=C(Nc1cncnc1N1CCCC1)c1cc(F)cc2[nH]cnc12,37,-7.43
C[C@@H]1CN(C(=O)c2cccc(-c3ccc4cc(O)ccc4c3)c2)[C@@H](C)CN1,-2,0.39
Cn1cc(-c2cncc(C(=O)NC3CCN(c4cccc(F)c4)CC3)c2)cn1,50,-10.8
CN1CCN(CCCNC(=O)Nc2cccc(-c3ccn[nH]3)c2)CC1,-6,1.13
Fc1ccc(NCc2ccc(OCC3CC3)cc2)nc1,1,-0.11
Cc1cc(NCc2nnc3n2-c2ccccc2CC3)c2ccccc2n1,-16,2.46
O=C(Cc1c[nH]c2ncccc12)Nc1ccc2c(c1)NC(=O)CC2,-1,0.21
COC(=O)c1cc2n(n1)CCN(C(=O)[C@H](C)N1CCCC1=O)C2,-1,0.24
CN(C)Cc1ccc(N2CCN(C(=O)c3ccc(-c4ccccc4)[nH]3)CC2)nc1,1,-0.19
N#Cc1cnc(NC2COCC2N2CCCC2)nc1N (stereo not drawn),3,-0.54
CN1CCCN(CCNCC2CC3C=CC2C3)CC1 (stereo not drawn),-7,1.43
Cc1ncc(S(C)(=O)=O)c(N2CC[C@@]3(CNC(=O)CO3)C2)n1,4,-0.76

SMILES,% Inhibition [%],Z score
O=C(CN1CC(O)C(Cc2ccnc3ccccc23)C1)N1CCNCC1 (stereo not drawn),2,-0.41
Cc1nscc1C(=O)OCc1ccc2c(c1)COC2,-6,0.98
c1cc2ccc(CN3CCCC4(CCNCC4)CC3)nc2[nH]1,-15,2.25
NC(=O)c1ccc(OCCCN2CCC(Nc3ncccn3)C(O)C2)cc1 (stereo not drawn),0,0.03
COc1nccnc1N1CCC(N2CCC[C@H](C(=O)N3CCOCC3)C2)CC1,5,-0.84
O=C(Cc1ccccc1)Nc1cc(NCc2cccc3cc[nH]c23)ccc1F,7,-1.27
CS(=O)(=O)Cc1ccc(F)cc1CNc1nc2ccccc2[nH]1,-4,0.64
Cc1cc(CC2CN(C(=O)CCc3[nH]nc(C)c3C)CC2O)on1 (stereo not drawn),0,0.01
COc1cccc(C(NCC(O)COc2cccc3[nH]ccc23)c2ccccn2)c1 (stereo not drawn),6,-1.2
O=S1(=O)CCC(O)(CNC2CC(c3ccccc3)C2)CC1 (stereo not drawn),-1,0.26
CC(C)N1CCC(N(CCNS(=O)(=O)c2cc(F)cc(F)c2)C2CCOCC2)CC1,-6,1.13
Cc1nc(-c2nnc[nH]2)sc1C(=O)N1CCC12COC2,3,-0.51
Cc1cc(N2CCC3(CC2)CN(CCN2CC[C@H](N(C)C)C2)C(=O)O3)nc(N)n1,-6,0.94
O=C(NCc1nc2cc(F)ccc2[nH]1)C1CNCC(C(=O)N2CCOCC2)C1 (stereo not drawn),-3,0.48
Cn1ccnc(N2CCC(NCc3cccc4cnccc34)CC2)c1=O,7,-1.42
c1ccc2c(N3CCN(c4cc(NC5CC5)ncn4)CC3)cncc2c1,-4,0.75
COc1ccc2[nH]c(CCN(C)c3cc(-c4nc(C)no4)ccn3)nc2c1,-3,0.56
Cc1ccccc1-c1noc([C@H](C)S(=O)(=O)CCCC#N)n1,-12,2.07
C[C@@H](CCNc1ccncc1F)N1CCN(C)CC1,-4,0.8
Oc1ccc(-c2cncc3nccn23)cc1OC(F)(F)F,-6,1.25
CC1(C)CN(c2nc(-c3ccccn3)nc3sccc23)CCN1,19,-3.26

SMILES,% Inhibition [%],Z score
Cc1cc(Br)cnc1NC[C@H](C)N1CCN(C)CC1,6,-0.99
O=C(NC1CC(N2CCCCC2)C1)c1cc(-c2ccc3ccccc3c2)[nH]n1 (stereo not drawn),-6,0.98
FC(F)(F)CN1CCC[C@@H]1CNc1ncnc2[nH]ccc12,-12,2.6
C#CCN1CCC(NCC2(N3CCCCC3)CCCC2)CC1,3,-0.62
CN(C)c1cc(C(F)(F)F)nc(N[C@H]2CCN(C(=O)C3CCCC3)C2)n1,9,-1.42
Cc1ccc2ccccc2c1CN1CCC(NC2CCOCC2)CC1,15,-2.6
Cc1cc(N2CCC(NCc3noc(-c4ccco4)n3)CC2)nc(C(C)C)n1,-17,2.93
CCc1ccc2nc(NC[C@H]3CCCN3C)cc(C)c2c1,-2,0.32
C[C@@H](c1ccc(-c2cnc3[nH]cnc3c2)cc1)N1CCCCC1,-4,0.72
CCc1cc(C(=O)N2CCN(c3ccccc3-c3ccccc3)C(=O)C2)[nH]n1,6,-1.29
CCNc1ccnc(NCC[C@H]2CN(c3cnn(C)c(=O)c3)CCO2)n1,6,-1.26
Nc1nc2c(c(NCc3csc(-c4cnccn4)n3)n1)CCNCC2,1,-0.15
O[C@H]1CCCN(CCCNc2nc3nonc3nc2N2CCCCCC2)C1,-16,2.72
CC(=O)N(Cc1cncnc1)[C@H]1CCCN(Cc2cccc3c[nH]nc23)CC1,7,-1.43
Nc1nc2c(c(NCc3nccn3Cc3ccccc3)n1)CCNCC2,6,-1.06
Cc1ccc2cc(CNc3ccc4c(c3)C(=O)NC4)ccc2n1,-16,2.75
Cc1cccc(-n2cc([C@H]3NC(C)(C)C(=O)N3CC(C)(C)C)c(C)n2)c1,5,-0.81
Nc1nc2c(c(NCc3ccco3)n1)CCN(C(=O)[C@H]1CCCN1)CC2,9,-1.55
Cc1ccc(F)c(CC(=O)N[C@@H]2C(=O)N(C)Cc3ccccc32)c1,19,-3.26
OCc1ccc2c(CN3CCNCC3)c[nH]c2c1,-3,0.66
CCOc1ccc(OCC(=O)N(C)C[C@]2(O)CCN(Cc3ccccc3)C2)cc1,2,-0.54
